From US20150322149A1 (Hoffmann-La Roche, published 2015)

Experiments:
[1] = target: T1, Abeta(1-40), fibrillar, immobilized (UniProt P05067 part only); assay: indirect ELISA on immobilized Abeta fibrils
T1 construct: domain: Abeta(1-40); Numbers 1-40 count on the Abeta peptide, not on the APP precursor; also called Abeta fibrils; fibrillar Abeta
Method: Functionality of mAb31 was confirmed by ELISA. Briefly, Abeta(1-40) was coated at 7 μg/mL in PBS onto Maxisorp plates for 3 days at 37° C. to produce fibrillar Abeta, then dried for 3 h at RT. The plate was blocked with 1% Crotein C and 0.1% RSA in PBS (blocking buffer) for 1 h at RT, then washed once with wash buffer. mAb31 constructs were added at concentrations up to 100 nM in blocking buffer and incubated at 4° C. overnight. After 4 wash steps, constructs were detected as indicated above.

[2] = target: T2, recombinant mouse transferrin receptor (mTfR), extracellular domain (mouse, UniProt Q62351); assay: indirect ELISA on immobilized mTfR extracellular domain
T2 construct: extracellular domain; Bought protein; also called murine Transferrin receptor 1
Method: Binding of mAb31-8D3 constructs to mouse transferrin receptor (mTfR) was assessed by indirect ELISA. To this end, recombinant mTfR (extracellular domain; Sino Biological) was coated to Maxisorb microtiter plate (Nunc) at 1 μg/mL in PBS at 4° C. overnight. After blocking in 1% Cro-tein-C/PBS (blocking buffer; Roche) for 1 h at RT and 4 washes with 0.1% Tween-20/PBS (wash buffer), mAb31-8D3 constructs were added to the wells at concentrations between 0.01 and 150 nM in blocking buffer and incubated for 1 h at RT. After 4 wash steps, constructs were detected by addition of anti-human-IgG-HRP (Jackson Immunoresearch) at 1:10,000 dilution in blocking buffer […], followed by 6 washes and incubation in TMB (Sigma). Absorbance was read out at 450 nm after stopping color development with 1 N HCl.

T2 sequence (Q62351 89-763): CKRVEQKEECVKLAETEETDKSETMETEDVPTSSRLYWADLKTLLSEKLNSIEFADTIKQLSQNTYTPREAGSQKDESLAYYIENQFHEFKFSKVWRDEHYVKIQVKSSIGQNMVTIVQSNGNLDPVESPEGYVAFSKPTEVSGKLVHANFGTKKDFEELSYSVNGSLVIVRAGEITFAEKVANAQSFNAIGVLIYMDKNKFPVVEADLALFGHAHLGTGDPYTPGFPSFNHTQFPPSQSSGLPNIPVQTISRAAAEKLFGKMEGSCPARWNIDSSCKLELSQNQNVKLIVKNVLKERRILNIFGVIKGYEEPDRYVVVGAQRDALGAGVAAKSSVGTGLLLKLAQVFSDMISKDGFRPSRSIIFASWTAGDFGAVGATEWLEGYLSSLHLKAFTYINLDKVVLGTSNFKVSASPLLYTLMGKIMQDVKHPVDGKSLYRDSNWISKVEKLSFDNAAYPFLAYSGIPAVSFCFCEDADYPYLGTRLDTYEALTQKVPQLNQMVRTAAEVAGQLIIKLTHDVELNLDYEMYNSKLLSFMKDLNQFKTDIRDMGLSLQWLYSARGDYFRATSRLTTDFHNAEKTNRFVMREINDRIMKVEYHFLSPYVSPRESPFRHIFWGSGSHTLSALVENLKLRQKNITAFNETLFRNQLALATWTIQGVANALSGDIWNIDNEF
T1 sequence (P05067 672-711 limits assumed): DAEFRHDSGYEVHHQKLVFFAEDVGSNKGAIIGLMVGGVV

binding result [1]	binding result [2]	Binder
binds	binds	Tetravalent Mab31-scFab(8D3) (mAb31-8D3-dFab) (bispecific antibody, human IgG1, kappa, also called dFab-mAb31; dFab-MAb31) heavy: QVELVESGGGLVQPGGSLRLSCAASGFTFSSYAMSWVRQAPGKGLEWVSAINASGTRTYYADSVKGRFTISRDNSKNTLYLQMNSLRAEDTAVYYCARGKGNTHKPYGYVRYFDVWGQGTLVTVSS[letters of human IgG1 constant region omitted]GSGGGGSGGGGSGGGGSDIQMTQSPASLSASLEEIVTITCQASQDIGNWLAWYQQKPGKSPQLLIYGATSLADGVPSRFSGSRSGTQFSLKISRVQVEDIGIYYCLQAYNTPWTFGGGTKVEIKRTVAAPSVFIFPPSDEQLKSGTASVVCLLNNFYPREAKVQWKVDNALQSGNSQESVTEQDSKDSTYSLSSTLTLSKADYEKHKVYACEVTHQGLSSPVTKSFNRGECGGGGSGGGGSGGGGSGGGGSGGGGSGGGGSGGEVQLVESGGGLVQPGNSLTLSCVASGFTFSNYGMHWIRQAPKKGLEWIAMIYYDSSKMNYADTVKGRFTISRDNSKNTLYLEMNSLRSEDTAMYYCAVPTSHYVVDVWGQGVSVTVSSASTKGPSVFPLAPSSKSTSGGTAALGCLVKDYFPEPVTVSWNSGALTSGVHTFPAVLQSSGLYSLSSVVTVPSSSLGTQTYICNVNHKPSNTKVDKKVEPKSC light: DIVLTQSPATLSLSPGERATLSCRASQSVSSSYLAWYQQKPGQAPRLLIYGASSRATGVPARFSGSGSGTDFTLTISSLEPEDFATYYCLQIYNMPITFGQGTKVEIKRTVAAPSVFIFPPSDEQLKSGTASVVCLLNNFYPREAKVQWKVDNALQSGNSQESVTEQDSKDSTYSLSSTLTLSKADYEKHKVYACEVTHQGLSSPVTKSFNRGEC
–	binds	Trivalent Mab31-scFab(8D3) (mAb31-8D3-sFab) (bispecific antibody, human IgG1, kappa, also called sFab-mAb31; sFab-MAb31) heavy 1: QVELVESGGGLVQPGGSLRLSCAASGFTFSSYAMSWVRQAPGKGLEWVSAINASGTRTYYADSVKGRFTISRDNSKNTLYLQMNSLRAEDTAVYYCARGKGNTHKPYGYVRYFDVWGQGTLVTVSSASTKGPSVFPLAPSSKSTSGGTAALGCLVKDYFPEPVTVSWNSGALTSGVHTFPAVLQSSGLYSLSSVVTVPSSSLGTQTYICNVNHKPSNTKVDKKV[letters of human IgG1 Fc with changes omitted]GGSGGGGSGGGGSGGGGSDIQMTQSPASLSASLEEIVTITCQASQDIGNWLAWYQQKPGKSPQLLIYGATSLADGVPSRFSGSRSGTQFSLKISRVQVEDIGIYYCLQAYNTPWTFGGGTKVEIKRTVAAPSVFIFPPSDEQLKSGTASVVCLLNNFYPREAKVQWKVDNALQSGNSQESVTEQDSKDSTYSLSSTLTLSKADYEKHKVYACEVTHQGLSSPVTKSFNRGECGGGGSGGGGSGGGGSGGGGSGGGGSGGGGSGGEVQLVESGGGLVQPGNSLTLSCVASGFTFSNYGMHWIRQAPKKGLEWIAMIYYDSSKMNYADTVKGRFTISRDNSKNTLYLEMNSLRSEDTAMYYCAVPTSHYVVDVWGQGVSVTVSSASTKGPSVFPLAPSSKSTSGGTAALGCLVKDYFPEPVTVSWNSGALTSGVHTFPAVLQSSGLYSLSSVVTVPSSSLGTQTYICNVNHKPSNTKVDKKVEPKSC heavy 2: QVELVESGGGLVQPGGSLRLSCAASGFTFSSYAMSWVRQAPGKGLEWVSAINASGTRTYYADSVKGRFTISRDNSKNTLYLQMNSLRAEDTAVYYCARGKGNTHKPYGYVRYFDVWGQGTLVTVSSASTKGPSVFPLAPSSKSTSGGTAALGCLVKDYFPEPVTVSWNSGALTSGVHTFPAVLQSSGLYSLSSVVTVPSSSLGTQTYICNVNHKPSNTKVDKKV[letters of human IgG1 Fc with changes omitted] light: DIVLTQSPATLSLSPGERATLSCRASQSVSSSYLAWYQQKPGQAPRLLIYGASSRATGVPARFSGSGSGTDFTLTISSLEPEDFATYYCLQIYNMPITFGQGTKVEIKRTVAAPSVFIFPPSDEQLKSGTASVVCLLNNFYPREAKVQWKVDNALQSGNSQESVTEQDSKDSTYSLSSTLTLSKADYEKHKVYACEVTHQGLSSPVTKSFNRGEC
